Measurements published in the supplement of paper PMC4967469.
IC50 is the fitted dose that halves viability relative to control wells, and lower means more sensitive; where the fit passes the top or lowest dose, that dose stands as a limit. For AUC the same curve is integrated over the 256-fold range of doses and scaled to a fraction; it is 1 without any effect and falls as sensitivity rises. For some of these results: Where the top dose is marked as inferred, it comes from the curve model; the source does not state it.

Key:
Experiment in all cases: Viability of human cancer cell lines after 72 h of drug (GDSC screen)
NPK76-II-72-1 = compound: COc1cc(C(=O)NC2CCN(C)CC2)ccc1Nc1ncc2c(n1)N(C1CCCC1)C(C)CC(=O)N2C [NPK76-II-72-1]; conditions: top dose 10.24 µM; top dose inferred
Method: (§1)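 Human cancer cell lines in 384-well plates, medium with 10% serum, drug for 72 h over a 256-fold dose range (nine 2-fold or five 4-fold steps up to the top dose). Adherent lines were fixed and stained with the nucleic acid dye Syto60, suspension lines read with resazurin; signal relative to control wells, capped at 0 and 100%. One two-parameter sigmoid per drug and line, fitted in a mixed model over all curves with the slope shared within a line.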

Bexarotene = compound: C=C(c1ccc(C(=O)O)cc1)c1cc2c(cc1C)C(C)(C)CCC2(C)C [Bexarotene]; conditions: top dose 8 µM
Method: as §1

YK 4-279 = compound: COc1ccc(C(=O)CC2(O)C(=O)Nc3c(Cl)ccc(Cl)c32)cc1 [YK 4-279]; conditions: top dose 10 µM
Method: as §1

BMS-345541 = compound: Cc1ccc2nc(NCCN)c3ncc(C)n3c2c1 [BMS-345541]; conditions: top dose 16 µM
Method: as §1

GSK-650394 = compound: O=C(O)c1ccc(-c2c[nH]c3ncc(-c4ccccc4)cc23)cc1C1CCCC1 [GSK-650394]; conditions: top dose 16 µM; top dose inferred
Method: as §1

Etoposide = compound: COc1cc([C@@H]2c3cc4c(cc3[C@@H](O[C@@H]3O[C@@H]5CO[C@@H](C)O[C@H]5[C@H](O)[C@H]3O)[C@H]3COC(=O)[C@H]23)OCO4)cc(OC)c1O [Etoposide]; conditions: top dose 16 µM
Method: as §1

XAV 939 = compound: Oc1nc(-c2ccc(C(F)(F)F)cc2)nc2c1CSCC2 [XAV 939]; conditions: top dose 5 µM; top dose inferred
Method: as §1

AZD7762 = compound: NC(=O)Nc1cc(-c2cccc(F)c2)sc1C(=O)N[C@H]1CCCNC1 [AZD7762]; conditions: top dose 2 µM
Method: as §1

| Cell Line | AUC (NPK76-II-72-1) | IC50 (NPK76-II-72-1) [µM] | AUC (Bexarotene) | IC50 (Bexarotene) [µM] | AUC (YK 4-279) | IC50 (YK 4-279) [µM] | AUC (BMS-345541) | IC50 (BMS-345541) [µM] | AUC (GSK-650394) | IC50 (GSK-650394) [µM] | AUC (Etoposide) | IC50 (Etoposide) [µM] | AUC (XAV 939) | IC50 (XAV 939) [µM] | AUC (AZD7762) | IC50 (AZD7762) [µM] |
| --- | --- | --- | --- | --- | --- | --- | --- | --- | --- | --- | --- | --- | --- | --- | --- | --- |
| 769-P (kidney, adherent) | 0.929 | > 10.2 | 0.963 | > 8 | 0.856 | 9.23 | 0.719 | 4.45 | 0.717 | 4.39 | 0.607 | 2.03 | 0.94 | > 5 |  |  |
| 786-0 (kidney, adherent) | 0.95 | > 10.2 | 0.907 | > 8 | 0.763 | 3.34 | 0.742 | 4.59 | 0.602 | 1.86 | 0.394 | 0.525 | 0.987 | > 5 |  |  |
| A204 (rhabdomyosarcoma, adherent) | 0.886 | > 10.2 | 0.891 | > 8 | 0.732 | 3.53 | 0.859 | > 16 | 0.819 | 12.8 | 0.326 | 0.282 | 0.944 | > 5 |  |  |
| A673 (rhabdomyosarcoma, adherent) | 0.914 | > 10.2 | 0.947 | > 8 | 0.665 | 1.7 | 0.923 | > 16 | 0.846 | 9.91 | 0.648 | 2.45 | 0.98 | > 5 |  |  |
| BCPAP (thyroid, adherent) | 0.898 | > 10.2 | 0.915 | > 8 | 0.672 | 1.78 | 0.892 | 15.7 | 0.767 | 5.42 | 0.466 | 0.813 | 0.97 | > 5 |  |  |
| BEN (non-small cell lung carcinoma, adherent) | 0.935 | > 10.2 | 0.899 | > 8 | 0.916 | > 10 | 0.901 | > 16 | 0.866 | > 16 | 0.901 | > 16 | 0.985 | > 5 |  |  |
| BFTC-909 (kidney, adherent) | 0.974 | > 10.2 | 0.908 | > 8 | 0.689 | 2.09 | 0.977 | > 16 | 0.81 | 8.17 | 0.522 | 1.14 | 0.9 | > 5 |  |  |
| BHY (head and neck, adherent) | 0.905 | > 10.2 | 0.941 | > 8 | 0.698 | 2.26 | 0.801 | 7.83 | 0.749 | 5.19 | 0.58 | 1.65 | 0.947 | > 5 |  |  |
| BPH-1 (prostate, adherent) | 0.625 | 1.47 | 0.977 | > 8 | 0.637 | 1.56 | 0.602 | 1.96 | 0.9 | > 16 | 0.512 | 1.08 | 0.876 | > 5 |  |  |
| CAL-54 (kidney, adherent) | 0.915 | > 10.2 | 0.984 | > 8 | 0.769 | 4.32 | 0.947 | > 16 | 0.985 | > 16 | 0.814 | 10.4 | 0.952 | > 5 |  |  |
| CAMA-1 (breast, adherent) | 0.961 | > 10.2 | 0.78 | 4.2 | 0.802 | 6.45 | 0.928 | > 16 | 0.851 | > 16 | 0.716 | 4.83 | 0.965 | > 5 |  |  |
| HCE-4 (oesophagus, adherent) | 0.991 | > 10.2 | 0.967 | > 8 | 0.68 | 1.83 | 0.936 | > 16 | 0.788 | 5.94 | 0.436 | 0.686 |  |  |  |  |
| HPAC (pancreas, adherent) | 0.909 | > 10.2 | 0.967 | > 8 | 0.776 | 5.75 | 0.91 | > 16 | 0.612 | 2.3 | 0.618 | 2.41 |  |  |  |  |
| HT-144 (melanoma, adherent) | 0.978 | > 10.2 |  |  | 0.766 | 4.12 | 0.982 | > 16 | 0.875 | > 16 | 0.175 | 0.0899 | 0.965 | > 5 |  |  |
| IM-95 (stomach, adherent) | 0.914 | > 10.2 | 0.849 | 6.65 | 0.871 | > 10 | 0.705 | 3.94 | 0.722 | 4.48 | 0.735 | 4.92 |  |  |  |  |
| KOSC-2 (head and neck, adherent) | 0.914 | > 10.2 | 0.985 | > 8 | 0.552 | 0.873 |  |  | 0.845 | 12.3 | 0.911 | > 16 | 0.929 | > 5 |  |  |
| KP-4 (pancreas, adherent) | 0.967 | > 10.2 |  |  | 0.651 | 1.61 | 0.893 | > 16 | 0.723 | 4.15 | 0.353 | 0.4 | 0.982 | > 5 |  |  |
| SF295 (glioma, adherent) | 0.973 | > 10.2 | 0.858 | 7.44 |  |  | 0.898 | > 16 | 0.724 | 4.58 | 0.571 | 1.59 | 0.885 | > 5 | 0.65 | 0.338 |
| SK-MM-2 (myeloma, suspension) | 0.878 | > 10.2 | 0.972 | > 8 |  |  | 0.767 | 6.2 | 0.984 | > 16 | 0.783 | 7.05 | 0.985 | > 5 | 0.958 | > 2 |
| SKN (uterus, adherent) | 0.982 | > 10.2 | 0.947 | > 8 |  |  | 0.879 | > 16 | 0.881 | > 16 | 0.716 | 4.72 | 0.879 | > 5 | 0.434 | 0.0796 |
